The whole screen tested about 310,000 compounds, of which about 14,000 (4.5%) showed an effect of 50% or more. Effects have a minus sign here. Some of the results follow.
Each molecule was assayed against human ether-à-go-go-related gene (hERG) potassium channel (human, UniProt Q12809) (assay: primary screen, population patch clamp on CHO cells stably expressing hERG).
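Also: peak tail current of the secondary pulse compared with the same well before compound.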

Sequence of human ether-à-go-go-related gene (hERG) potassium channel (Q12809 whole entry, looked up): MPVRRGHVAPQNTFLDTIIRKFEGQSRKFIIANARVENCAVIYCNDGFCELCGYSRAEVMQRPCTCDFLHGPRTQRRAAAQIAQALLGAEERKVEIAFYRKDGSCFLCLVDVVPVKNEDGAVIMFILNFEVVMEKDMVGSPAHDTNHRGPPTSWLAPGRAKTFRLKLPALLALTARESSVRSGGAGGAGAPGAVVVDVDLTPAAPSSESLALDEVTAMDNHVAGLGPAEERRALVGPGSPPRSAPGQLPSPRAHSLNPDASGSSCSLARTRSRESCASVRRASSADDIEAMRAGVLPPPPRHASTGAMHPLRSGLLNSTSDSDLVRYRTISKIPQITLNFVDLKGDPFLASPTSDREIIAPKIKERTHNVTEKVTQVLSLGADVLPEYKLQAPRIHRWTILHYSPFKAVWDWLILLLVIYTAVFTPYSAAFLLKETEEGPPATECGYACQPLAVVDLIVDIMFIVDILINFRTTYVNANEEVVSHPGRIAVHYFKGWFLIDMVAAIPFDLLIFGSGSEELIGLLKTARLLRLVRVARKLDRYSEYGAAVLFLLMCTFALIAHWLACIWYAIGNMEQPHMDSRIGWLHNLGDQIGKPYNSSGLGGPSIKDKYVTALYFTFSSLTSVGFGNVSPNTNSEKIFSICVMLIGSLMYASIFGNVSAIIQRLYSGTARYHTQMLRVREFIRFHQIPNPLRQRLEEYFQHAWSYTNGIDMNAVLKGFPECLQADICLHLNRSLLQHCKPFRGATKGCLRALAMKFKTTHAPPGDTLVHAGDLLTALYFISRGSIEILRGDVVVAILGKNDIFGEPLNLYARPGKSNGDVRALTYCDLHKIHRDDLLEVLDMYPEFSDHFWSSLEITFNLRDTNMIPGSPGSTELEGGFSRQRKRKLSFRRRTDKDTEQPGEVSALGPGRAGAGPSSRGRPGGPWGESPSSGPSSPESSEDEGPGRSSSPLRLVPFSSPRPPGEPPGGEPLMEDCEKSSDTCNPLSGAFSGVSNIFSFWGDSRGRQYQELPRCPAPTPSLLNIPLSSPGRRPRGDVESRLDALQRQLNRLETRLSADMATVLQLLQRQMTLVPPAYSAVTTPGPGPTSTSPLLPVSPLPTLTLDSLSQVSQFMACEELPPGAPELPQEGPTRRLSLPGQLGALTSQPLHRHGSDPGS

Row | Compound | hERG current change (%, negative = inhibition) at 10uM [%]
1 | COC(CNC(=O)C(=O)Nc1ccc2c(c1)N(S(=O)(=O)c1cccs1)CCC2)OC | 2.86
2 | COC(=O)C1=C(C)N(CCCC(=O)O)C(=O)NC1c1ccc(Cl)cc1 (stereo not shown) | -12.1
3 | OCCOCCOc1ccc(-c2nn[nH]n2)cc1 | 11.6
4 | COc1ccc(C2c3[nH]c4ccccc4c3C[C@H]3C(=O)N(C4CCN(Cc5ccccc5)CC4)CC(=O)N23)cc1OC (stereo partly shown) | -45.2
5 | O=C(Nc1ccc([N+](=O)[O-])cc1)c1cccc(S(=O)(=O)Nc2ccccn2)c1 | 1.99
6 | O=C(c1ccccc1)c1c[nH]c(C(=O)C(Cl)(Cl)Cl)c1 | 33.3
7 | CC1CC1C(=O)OCC(=O)Nc1ccccc1Oc1ccccc1 (stereo not shown) | 13.9
8 | Cc1cc(C)n(C(=O)/C(C#N)=N\Nc2ccccc2[N+](=O)[O-])n1 | 14.3
9 | N#Cc1c2ccc(OCC(N)=O)cc2n2ccccc12 | 35.1
10 | Nc1[nH][nH]c(=O)c1N=Nc1ccc2c(c1)OCO2 | 21.8
11 | Cc1nc(NC(=O)c2c(-c3ccccc3Cl)noc2C)sc1C | -12.5
12 | COc1ccc(/C=C/c2nc(S(=O)(=O)c3ccccc3)c(N(C)C)o2)cc1 | 1.65
13 | COc1cc(C=O)ccc1OCC(=O)NC(C)(C)C | 5.35
14 | Cc1ccc(CCN2CC(C(=O)NCCCN3CCCCCC3)CC2=O)cc1 (stereo not shown) | 10.8
15 | COCC(=O)Nc1cc([N+](=O)[O-])ccc1OC | 5.1
16 | COc1ccc(OC)c(S(=O)(=O)N2CCN(CC(O)COc3ccccc3)CC2)c1 (stereo not shown) | -34.7
17 | NC(=O)c1ccc(S(=O)(=O)N2CCSCC2)cc1 | 14.8
18 | Cc1cccc2cc(C(c3nnnn3Cc3ccccc3)N3CCCc4ccccc43)c(=O)[nH]c12 (stereo not shown) | 2.22
19 | COc1ccc(C(=O)O/N=C(/C(N)=O)P(=O)(OC(C)C)OC(C)C)cc1 | -8.54
20 | Cc1ccc(CCNC(=O)CC(C)CC2=NS(=O)(=O)c3ccccc3N2)cc1 (stereo not shown) | 10.4

Row | Compound | hERG current change (%, negative = inhibition) at 10uM [%]
21 | CC1(C)CC(=O)C=C(NCCN2CCNCC2)C1 | -2.18
22 | CCCCC(=O)Nc1c(-c2ccc(OC)c(OC)c2)c(=O)c2ccccc2n1C | 21.9
23 | COc1ccc(NC(=O)c2ccccc2CC[N+](=O)[O-])cc1 | 9.51
24 | C=CCn1c(O)c(C(C)=NCCc2ccccc2)c(=O)[nH]c1=O | -14.7
25 | CCCCCCCCCCS(=O)(=O)N/N=C/c1ccccc1OC | -0.985
26 | COc1cc(CNn2nnnc2N)ccc1OCc1c(Cl)cccc1Cl | -1.22
27 | Cc1cc(C)n(S(=O)(=O)c2ccc(Cl)c(Cl)c2Cl)n1 | -2.78
28 | CCc1cccc(C)c1NC(=O)Cc1ccsc1 | 4.64
29 | CC(C)C(=O)Nc1ccc(NC(=O)c2cccs2)cn1 | -2.8
30 | CCOC(=O)c1c(C)[nH]c(C(=O)COC(=O)c2ccccc2NC(=O)c2ccco2)c1C | 12.8
31 | COc1ccc(Cl)cc1NC(=O)CN(C)C(=O)CCCNC(=O)c1ccc(Cl)cc1 | -55.4
32 | O=C1O/C(=C/c2ccccc2)N=C1c1ccccc1 | 12.3
33 | CC(C)(C)NC(=O)Cn1ccc(=N)c2ccccc21.Cl | 4.84
34 | CCOC(=O)c1cccc(NC(=O)CSc2nnc(-c3ccoc3C)n2CCOC)c1 | -19.7
35 | O=C(CCCCCNc1nc(=S)[nH]c2ccccc12)NCCc1c[nH]c2ccccc12 | 5.94
36 | O=C(O)C1C2C=CC(C2)C1C(=O)NCc1cccc(Cl)c1 (stereo not shown) | 21.9
37 | CCN(CC1COc2ccccc2O1)C(=O)CN1C(=O)NC(C)(c2ccccc2)C1=O (stereo not shown) | -12.4
38 | O=C(NCCSc1ccc(Cl)cc1)c1ccco1 | -21.4
39 | N#CC1(Cc2ccc([N+](=O)[O-])cc2)c2ccccc2C=CN1C(=O)c1ccccc1 (stereo not shown) | -24.1
40 | Cc1ccc(-c2ccc(CCC(=O)O)n2NC(=O)c2ccco2)cc1 | -8.06

Row | Compound | hERG current change (%, negative = inhibition) at 10uM [%]
41 | COc1ccc(OC)c(C(c2nnnn2Cc2ccccc2)N2CCC(C(N)=O)CC2)c1 (stereo not shown) | -13.5
42 | COc1ccc(CNC(=O)CNS(=O)(=O)c2ccc(Cl)cc2)cc1 | -23.1
43 | Cn1cnnc1SCC(=O)c1ccco1 | 9.46
44 | O=C(COc1cccc2c1CCN(Cc1ccc(Br)cc1)C2=O)NCc1ccco1 | -70.6
45 | CC(C)COC(=O)CCNc1n[nH]c(=O)[nH]c1=O | 2.82
46 | Clc1ccccc1OCCn1cnc2ccccc21 | -10.6
47 | O=C(Cc1ccccc1)Nc1ccc(N2CCOCC2)cc1 | 30.2
48 | Cc1ccc(-n2c(SCC3CNC(=O)O3)nnc2-c2ccccc2)cc1C (stereo not shown) | -29
49 | COc1ccccc1OC(=O)c1cc2ccccc2oc1=O | 6.48
50 | c1cn(C23CC4CC(CC(C4)C2)C3)cn1 | -13.1
51 | Cc1ccc(C(=O)NC2(C(F)(F)F)N=C3SCCN3C2=O)cc1 (stereo not shown) | 20.5
52 | COc1ccc(C(C(=O)NC(C)(C)C)N(C(=O)CCC(=O)Nc2cc(C)on2)c2ccc3c(c2)OCCO3)cc1 (stereo not shown) | 13.4
53 | CCCOc1ccc(N2CC(C(=O)NC3=NCCS3)CC2=O)cc1 (stereo not shown) | -49.7
54 | c1ccc(OCCCc2nc(-c3ccncc3)no2)cc1 | -1.66
55 | CC(=O)c1ccc(NC(=O)C(NC(=O)c2ccccc2)=C(C)C)cc1 | 12.8
56 | CCn1c(SCC(=O)N/N=C/C=C\c2ccccc2[N+](=O)[O-])nc2ccccc21 | -63.8
57 | O=C(N/N=C/c1cccnc1)c1ccc(NC(=O)c2ccc(Cl)cc2)cc1 | 9.58
58 | N#C/C(=C\c1cccs1)c1nc2ccccc2[nH]1 | 1.05
